In the supplement of paper PMC11741623:
The other results are listed elsewhere or left out. Interaction screen of human proteins with wild-type SARS-CoV-2 proteins by split-DHFR complementation in yeast, 1 µg/mL methotrexate. Value = fitness of the pair (three or more lineages) minus that of the viral protein without a human partner, on a scale set by negative (0) and fused positive (1) controls, mean of up to three cultures; higher = more likely to interact. Active = false discovery rate below 0.05 (one-sided t-test) in at least one culture. Nearly all pairs are not hits, and differences among them are mostly noise (correlation between cultures about 0.3); most hits were seen in one culture only. Human sequences are the Swiss-Prot entries looked up by gene name; the clone may be another isoform. NSP2 values were corrected by the authors for a growth advantage. Listed are human proteins with a hit and a random twelfth of the others.

B1: GNAT2, P19087 (protein)
chain: MGSGASAEDKELAKRSKELEKKLQEDADKEAKTVKLLLLGAGESGKSTIVKQMKIIHQDGYSPEECLEFKAIIYGNVLQSILAIIRAMTTLGIDYAEPSCADDGRQLNNLADSIEEGTMPPELVEVIRRLWKDGGVQACFERAAEYQLNDSASYYLNQLERITDPEYLPSEQDVLRSRVKTTGIIETKFSVKDLNFRMFDVGGQRSERKKWIHCFEGVTCIIFCAALSAYDMVLVEDDEVNRMHESLHLFNSICNHKFFAATSIVLFLNKKDLFEEKIKKVHLSICFPEYDGNNSYDDAGNYIKSQFLDLNMRKDVKEIYSHMTCATDTQNVKFVFDAVTDIIIKENLKDCGLF
B2: ODAM, A1E959 (protein)
chain: MKIIILLGFLGATLSAPLIPQRLMSASNSNELLLNLNNGQLLPLQLQGPLNSWIPPFSGILQQQQQAQIPGLSQFSLSALDQFAGLLPNQIPLTGEASFAQGAQAGQVDPLQLQTPPQTQPGPSHVMPYVFSFKMPQEQGQMFQYYPVYMVLPWEQPQQTVPRSPQQTRQQQYEEQIPFYAQFGYIPQLAEPAISGGQQQLAFDPQLGTAPEIAVMSTGEEIPYLQKEAINFRHDSAGVFMPSTSPKPSTTNVFTSAVDQTITPELPEEKDKTDSLREP
B3: PARS2, Q7L3T8 (protein)
chain: MEGLLTRCRALPALATCSRQLSGYVPCRFHHCAPRRGRRLLLSRVFQPQNLREDRVLSLQDKSDDLTCKSQRLMLQVGLIYPASPGCYHLLPYTVRAMEKLVRVIDQEMQAIGGQKVNMPSLSPAELWQATNRWDLMGKELLRLRDRHGKEYCLGPTHEEAITALIASQKKLSYKQLPFLLYQVTRKFRDEPRPRFGLLRGREFYMKDMYTFDSSPEAAQQTYSLVCDAYCSLFNKLGLPFVKVQADVGTIGGTVSHEFQLPVDIGEDRLAICPRCSFSANMETLDLSQMNCPACQGPLTKTKGIEVGHTFYLGTKYSSIFNAQFTNVCGKPTLAEMGCYGLGVTRILAAAIEVLSTEDCVRWPSLLAPYQACLIPPKKGSKEQAASELIGQLYDHITEAVPQLHGEVLLDDRTHLTIGNRLKDANKFGYPFVIIAGKRALEDPAHFEVWCQNTGEVAFLTKDGVMDLLTPVQTV

target: SARS-CoV-2 M; assay: yeast fitness gain over the viral ORF with no human partner (scaled fitness); higher = more likely to interact
Procedure: (§1)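 Split mouse DHFR complementation in pooled diploid yeast: human ORFeome clones carry one fragment and viral ORFs the other; barcoded lineages compete in 1 µg/mL methotrexate and fitness is read by barcode sequencing in up to three cultures.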

Binder	yeast fitness gain
B1	inactive: -0.142
B2	inactive: 0.0327
B3	inactive: 0.026

target: SARS-CoV-2 N; assay: as above
Procedure: as §1

Binder	yeast fitness gain
B1	inactive: -0.123
B3	inactive: -0.00439

target: SARS-CoV-2 NSP10; assay: as above
Procedure: as §1

Binder	yeast fitness gain
B1	inactive: -0.0889
B2	inactive: -0.0133
B3	inactive: -0.00262

target: SARS-CoV-2 NSP12; assay: as above
Procedure: as §1

Binder	yeast fitness gain
B1	inactive: 0.0347
B2	inactive: -0.0441
B3	inactive: 0.0121

target: SARS-CoV-2 NSP13; assay: as above
Procedure: as §1

Binder	yeast fitness gain
B1	inactive: 0.0216
B2	inactive: 0.0125
B3	inactive: -0.00824

target: SARS-CoV-2 NSP15; assay: as above
Procedure: as §1

Binder	yeast fitness gain
B1	inactive: -0.208
B2	inactive: -0.0489
B3	inactive: 0.0641

target: SARS-CoV-2 NSP16; assay: as above
Procedure: as §1

Binder	yeast fitness gain
B1	inactive: -0.0298
B3	inactive: -0.0848

target: SARS-CoV-2 NSP2; assay: as above
Procedure: as §1

Binder	yeast fitness gain
B1	inactive: -0.107
B2	inactive: -0.105
B3	inactive: -0.123

target: SARS-CoV-2 NSP5; assay: as above
Procedure: as §1

Binder	yeast fitness gain
B1	inactive: -0.0234
B2	inactive: 0.0268
B3	inactive: 0.0566

target: SARS-CoV-2 NSP7; assay: as above
Procedure: as §1

Binder	yeast fitness gain
B1	inactive: 0.0274
B2	inactive: -0.124
B3	inactive: -0.0488

target: SARS-CoV-2 NSP8; assay: as above
Procedure: as §1

Binder	yeast fitness gain
B1	inactive: -0.0737
B2	inactive: -0.078
B3	inactive: 0.062

target: SARS-CoV-2 NSP9; assay: as above
Procedure: as §1

Binder	yeast fitness gain
B1	inactive: -0.0313
B3	inactive: -0.13

target: SARS-CoV-2 ORF10; assay: as above
Procedure: as §1

Binder	yeast fitness gain
B1	inactive: -0.00625
B3	inactive: -0.0176

target: SARS-CoV-2 ORF3B; assay: as above
Procedure: as §1

Binder	yeast fitness gain
B1	inactive: -0.0105
B2	inactive: -0.0291
B3	inactive: 0.033

target: SARS-CoV-2 ORF6; assay: as above
Procedure: as §1

Binder	yeast fitness gain
B1	inactive: 0.0416
B2	inactive: -0.0335
B3	inactive: 0.0818

target: SARS-CoV-2 ORF7A; assay: as above
Procedure: as §1

Binder	yeast fitness gain
B1	inactive: 0.0115
B2	inactive: 0.0928
B3	inactive: -0.0504

target: SARS-CoV-2 ORF7B; assay: as above
Procedure: as §1

Binder	yeast fitness gain
B1	inactive: 0.0309
B2	inactive: 0.111
B3	inactive: 0.036

target: SARS-CoV-2 ORF8; assay: as above
Procedure: as §1

Binder	yeast fitness gain
B1	inactive: 0.0126
B2	inactive: -0.042
B3	inactive: -0.0342

target: SARS-CoV-2 ORF9B; assay: as above
Procedure: as §1

Binder	yeast fitness gain
B1	inactive: 0.00967
B2	inactive: -0.000298
B3	inactive: -0.0156

target: SARS-CoV-2 ORF9Bwu (the 73-codon ORF); assay: as above
Procedure: as §1

Binder	yeast fitness gain
B1	inactive: -0.0755
B3	inactive: -0.0567

target: SARS-CoV-2 S; assay: as above
Procedure: as §1

Binder	yeast fitness gain
B1	inactive: -0.169
B2	inactive: 0.042
B3	inactive: 0.0267

target: SARS-CoV-2 NSP1; assay: as above
Procedure: as §1

Binder	yeast fitness gain
B2	inactive: 0.00552
B3	inactive: -0.0474

target: SARS-CoV-2 NSP14; assay: as above
Procedure: as §1

Binder	yeast fitness gain
B2	inactive: -0.36

target: SARS-CoV-2 NSP6; assay: as above
Procedure: as §1

Binder	yeast fitness gain
B2	inactive: 0.104
B3	inactive: 0.0125

target: SARS-CoV-2 ORF3A; assay: as above
Procedure: as §1

Binder	yeast fitness gain
B2	inactive: -0.255
B3	inactive: -0.101
